Experimental data as given in PubChem BioAssay (NCATS).
The inconclusive results got no clear call from the source; some entries with a clear call stand among them for comparison. For some of these results: No potency is given beside an inconclusive call; the fits are too rough. The source made the active and inactive calls. Unless noted, calls follow the shape of the dose curve; as a rule, active = well fitted curve in the direction sought with a large enough effect; inconclusive = small, poorly fitted or top-dose-only effect, or another doubt; inactive = no such curve, though single readings can be large; an effect the other way counts as inactive or inconclusive.

Tests used:
[1] = Cell Viability - Hek293 (AID 427;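 active = compounds whose dose-response curve shows a full or clear partial loss of cell viability, called from curve shape rather than a numeric limit; inconclusive = weak partial curves or an effect only at the top dose; inactive = no dose-dependent loss of viability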;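 also: potency is read from the fitted curve at half-maximal effect; cells exposed to compound for 40 hours at 37 °C before reading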); settings: qHTS
In short: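 Luminescent ATP content (CellTiter-Glo, 20 min at room temperature) was measured after a 40 hr, 37 °C compound exposure of HEK293 cells. AC50 values came from Hill-equation fits of qHTS concentration-response data normalized to DMSO and 100 uM tamoxifen.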

[2] = Cell Viability - SK-N-SH (AID 435; calls by dose curve; also: potency is read from the fitted curve at half-maximal effect); settings: SK-N-SH neuroblastoma cell viability qHTS
In short: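 qHTS cytotoxicity: CellTiter-Glo ATP luminescence after 40 h compound exposure of human neuroblastoma SK-N-SH cells at 37 °C. AC50 derived by Hill-equation fitting, with DMSO as basal and 100 uM tamoxifen as full inhibition.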

[3] = biological target: Mitogen-activated protein kinase 10 (Mus musculus) (UniProt Q61831); test: JNK3 AlphaScreen Assay (AID 530; active = well fitted curve in either direction with a large enough effect, not every such curve was filed as active; inconclusive = small, poorly fitted or top-dose-only effect, or another doubt;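 also: kinase came from lysate of stimulated human HepG2 cells; signal reports phosphorylation of biotinylated GST-cJun 1-79 at Ser73 with 10 µM ATP; potency is read from the fitted curve at half-maximal effect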); settings: JNK3 lysate, c-Jun phosphorylation; activity change, negative = inhibition: at 57.1 µM (top of the series)
In short: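 Phosphorylation of biotinylated GST-cJun(1-79) at Ser73 is measured by AlphaScreen proximity luminescence. Enzyme is JNK3 in HepG2 lysates activated with interleukin-1beta and tumor necrosis factor alpha; ATP is 10 uM final.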

[4] = Cell Viability - N2a (AID 540); settings: N2a mouse neuroblastoma cell viability; activity change, negative = cytotoxicity: at 92.2 µM (top of the series); also: potency is read from the fitted curve at half-maximal effect; nearly all actives have a fitted effect of over 45% in size
In short: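 Cytotoxicity was scored as loss of cellular ATP in N2a cells, a mouse neuroblastoma line. Compounds are applied in a qHTS concentration series for 40 hr at 37 °C.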

[5] = Cell Viability - NIH 3T3 (AID 541); settings: NIH 3T3 cell viability, qHTS; activity change, negative = cytotoxicity: at 92.2 µM (top of the series);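 also: potency is read from the fitted curve at half-maximal effect; cells exposed to compound for 40 hours; nearly all actives have a fitted effect of over 25% in size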
In short: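 Cells seeded at 1000/well, rested 5 hr at 37 °C, then dosed and incubated 40 hr at 37 °C. CellTiter-Glo added, 20 min room temperature, luminescence read. AC50 by Hill fit.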

[6] = Cell Viability - HUV-EC-C (AID 542); settings: HUV-EC-C endothelial cell viability, qHTS; series mostly up to 92.2 µM;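 also: potency is read from the fitted curve at half-maximal effect; cells exposed to compound for 40 hours; nearly all actives have a fitted effect of over 35% in size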
In short: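 Cells were seeded at 1000 per well and incubated 5 hr at 37 °C before compound addition. After 40 hr at 37 °C, CellTiter-Glo reagent was added for 20 min and luminescence read. AC50 values came from Hill-equation modelling.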

[7] = Cell Viability - Renal Proximal Tubule (AID 545); settings: renal proximal tubule cells viability, primary cells of rat origin; activity change, negative = cytotoxicity: at 91.7 µM (top of the series);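 also: cells exposed to compound for 40 hours; 0% = DMSO only and -100% = 100 µM tamoxifen; nearly all actives have a fitted effect of over 40% in size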
In short: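 Viability taken as intracellular ATP (CellTiter-Glo luminescence) after 40 hr, 37 °C compound treatment of primary proximal tubule cells from rat kidney, 1000 cells/well; Hill-equation fits of qHTS concentration-response data gave AC50.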

[8] = Cellular Toxicity (caspase-3) NIH 3T3 (AID 666); settings: NIH 3T3 caspase-3 activation, apoptosis/toxicity;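 also: potency is read from the fitted curve at half-maximal effect; caspase signal read after 16 h compound exposure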
In short: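 Cells were plated at 1000 per well and incubated 5 hr at 37°C, then compound was added for 16 hr. Caspase-Glo 3/7 reagent followed for 20 min at room temperature before luminescence was read.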

[9] = biological target: Cytochrome P450 3A4 (Homo sapiens) (UniProt P08684); test: qHTS Assay for Inhibitors and Substrates of Cytochrome P450 3A4 (AID 884); settings: recombinant CYP3A4, Luciferin-PPXE luminescence; series mostly up to 57.1 µM; also: potency is read from the fitted curve at half-maximal effect; nearly all actives have a fitted effect of over 50% in size
UniProt P08684, sequence (P08684 whole entry, looked up): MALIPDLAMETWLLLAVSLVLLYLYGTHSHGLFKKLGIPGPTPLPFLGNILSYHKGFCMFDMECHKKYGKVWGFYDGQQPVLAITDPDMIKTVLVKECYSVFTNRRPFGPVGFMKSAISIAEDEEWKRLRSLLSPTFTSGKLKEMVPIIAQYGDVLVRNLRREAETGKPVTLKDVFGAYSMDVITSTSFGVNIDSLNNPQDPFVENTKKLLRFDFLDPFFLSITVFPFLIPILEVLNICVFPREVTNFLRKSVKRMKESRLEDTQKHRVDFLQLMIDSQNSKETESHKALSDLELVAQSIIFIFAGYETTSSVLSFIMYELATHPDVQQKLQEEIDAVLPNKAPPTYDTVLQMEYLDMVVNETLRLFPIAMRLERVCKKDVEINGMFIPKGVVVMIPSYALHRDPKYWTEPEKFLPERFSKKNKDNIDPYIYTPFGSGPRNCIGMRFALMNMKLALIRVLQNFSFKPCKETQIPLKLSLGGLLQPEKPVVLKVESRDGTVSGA
In short: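 Luminescent readout of luciferin produced by CYP3A4 (20 nM) dealkylation of Luciferin-PPXE, 25 uM (its KM). NADPH-driven reaction ran 60 min at RT after 10 min compound preincubation; data scaled to 57 uM ketoconazole as 100% inhibition.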

[10] = Cell Viability - LYMP2-001 (AID 921); settings: LYMP2-001 lymphoblastoid cell viability; series mostly up to 92.2 µM; also: potency is read from the fitted curve at half-maximal effect; nearly all actives have a fitted effect of over 70% in size
In short: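 Cellular ATP loss read by luciferase luminescence after 24 h compound exposure at 37 C in complete medium. LYMP2-001 lymphoblastoid cells, 2500/well; qHTS concentration-response data fitted with Hill equation for AC50.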

[11] = MultiTox-Fluor Cytotoxicity Assay - LYMP1-001 - Dead Cells (AID 946); settings: LYMP1-001 lymphoblastoid cells, dead-cell protease fluorescence; cytotoxicity (dead cells): at 92.2 µM (top of the series); also: potency is read from the fitted curve at half-maximal effect
In short: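 Cytotoxicity as increased dead-cell protease fluorescence (bis-AAF-R110, 485/520 nm), read 60 min after MultiTox-Fluor reagent. Human lymphoblastoid line exposed 16 h; Hill-fitted AC50, with DMSO as 0% and 15 uM tetraoctylammonium bromide as 100%.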

[12] = MultiTox-Fluor Cytotoxicity Assay - LYMP1-001 - Live Cells (AID 947); settings: LYMP1-001 lymphoblastoid cells, live-cell protease fluorescence viability; series mostly up to 92.2 µM; also: potency is read from the fitted curve at half-maximal effect
[13] = MultiTox-Fluor Cytotoxicity Assay - LYMP1-002 - Live Cells (AID 955); settings: LYMP1-002 lymphoblastoid live-cell protease fluorescence viability; series mostly up to 46.1 µM;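 also: potency is read from the fitted curve at half-maximal effect; cells exposed to compound for 16 hours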
In short: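 Cells were seeded at 2500 per well and incubated 5 hr. Compounds were then added for 16 hr at 37 C, followed by MultiTox-Fluor reagent for 60 min at room temperature and fluorescence reading of viable-cell protease signal.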

[14] = MultiTox-Fluor Cytotoxicity Assay - LYMP1-002 - Dead Cells (AID 960); settings: LYMP1-002 lymphoblastoid cells, dead-cell protease fluorescence; cytotoxicity (dead cells): at 46.1 µM (top of the series); also: potency is read from the fitted curve at half-maximal effect; nearly all actives have a fitted effect of over 60% in size
In short: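 Cells were plated, rested 5 hr, then treated with compound dilution series for 16 hr at 37 C. After adding substrate reagent and 60 min at room temperature, dead-cell protease fluorescence gave concentration-response curves fitted by the Hill equation.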

[15] = MultiTox-Fluor Cytotoxicity Assay - LYMP1-003 - Dead Cells (AID 961); settings: LYMP1-003 lymphoblastoid cells, dead-cell protease fluorescence; series mostly up to 92.2 µM; also: potency is read from the fitted curve at half-maximal effect; nearly all actives have a fitted effect of over 70% in size
In short: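 Dead-cell protease release, detected as bis-AAF-R110 fluorescence at 485/520 nm, was measured in LYMP1-003 cells after 16 h compound treatment at 37 C. AC50 values came from Hill-modeled qHTS curves normalized to DMSO (0%) and 15 uM tetraoctylammonium bromide (100%).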

[16] = MultiTox-Fluor Cytotoxicity Assay - LYMP1-003 - Live Cells (AID 962); settings: LYMP1-003 lymphoblastoid cells, MultiTox-Fluor live-cell protease fluorescence; series mostly up to 92.2 µM;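 also: potency is read from the fitted curve at half-maximal effect; cells exposed to compound for 16 hours at 37 °C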
In short: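 Acute cytotoxicity is scored as a drop in live-cell protease activity in human lymphoblastoid LYMP1-003 cells after 16 hr compound exposure at 37 C. AC50 values come from Hill-equation modelling of concentration-response data.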

[17] = Cell Viability - LYMP1-003 - Assay at 24 hr (AID 963); settings: LYMP1-003 lymphoblastoid cell viability; series mostly up to 92.2 µM; also: potency is read from the fitted curve at half-maximal effect
In short: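 Cytotoxicity is scored as a concentration-dependent fall in ATP-linked luciferase signal in human lymphoblastoid LYMP1-003 cells treated 24 hr at 37 C in complete culture medium.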

[18] = Cell Viability - LYMP2-003 (AID 965); settings: LYMP2-003 lymphoblastoid cell viability; series mostly up to 92.2 µM;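 also: potency is read from the fitted curve at half-maximal effect; cells exposed to compounds for 24 h before reading; nearly all actives have a fitted effect of over 50% in size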
In short: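 CellTiter-Glo luminescence quantified ATP loss after 24 h compound treatment of LYMP2-003 lymphoblastoid cells at 37 C. Titration series were fitted with the standard Hill equation to give AC50.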

[19] = Cell Viability - LYMP2-004 (AID 966); settings: LYMP2-004 lymphoblastoid cell viability, qHTS; series mostly up to 92.2 µM; also: potency is read from the fitted curve at half-maximal effect; nearly all actives have a fitted effect of over 65% in size
In short: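 qHTS cytotoxicity: human lymphoblastoid line, 24 hr compound treatment, 37 C, complete medium. Viability read as cellular ATP via luciferase luminescence; tetraoctylammonium bromide served as positive control.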

[20] = Cell Viability - LYMP2-005 (AID 967); settings: LYMP2-005 lymphoblastoid cell viability; series mostly up to 92.2 µM; also: potency is read from the fitted curve at half-maximal effect
In short: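 LYMP2-005 human lymphoblastoid cells (2500/well) were treated with compounds for 24 h at 37 C. Intracellular ATP was then measured by CellTiter-Glo luminescence after 30 min at room temperature. AC50 values came from Hill-equation fits of qHTS concentration-response data.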

[21] = Cell Viability - LYMP2-013 (AID 970); settings: LYMP2-013 lymphoblastoid cells viability; activity change, negative = cytotoxic: at 92.2 µM (top of the series); also: potency is read from the fitted curve at half-maximal effect; nearly all actives have a fitted effect of over 55% in size
In short: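 Cytotoxicity is scored as a concentration-dependent drop in intracellular ATP in human lymphoblastoid cells after 24 hr compound exposure at 37 C. ATP is quantified by luciferase luminescence, and AC50 values come from Hill-equation modeling.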

[22] = Cell Viability - LYMP2-015 (AID 971); settings: LYMP2-015 lymphoblastoid cell viability; series mostly up to 92.2 µM; also: potency is read from the fitted curve at half-maximal effect; nearly all actives have a fitted effect of over 55% in size
In short: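 Cells are seeded at 2500 per well and incubated 5 hr at 37 C. Compounds are added across a concentration series for 24 hr at 37 C. CellTiter-Glo is added, and luminescence is read after 30 min at room temperature.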
Tags tell the direction and shape of the fitted curve.

## CCC(C)Nc1ccc(NC(C)CC)cc1 (configuration not stated)
[1]
  Potency: active: 19.3 µM
[2]
  Potency: active: 8.73 µM
[3]
  Potency: inconclusive [inhibitor, partial curve]
[4]
  Potency: active: 15.8 µM
[5]
  Potency: active: 5.01 µM
[6]
  Potency: active: 10 µM
[7]
  activity change, negative = cytotoxicity: active: -100%
[8]
  Potency: inconclusive [falling, full curve]
[9]
  Potency: active: 15.8 µM
[10]
  Potency: active: 5.01 µM
[11]
  Potency: inconclusive [cytotoxic, partial curve, poor fit]
[12]
  Potency: active: 12.6 µM
[13]
  Potency: active: 10 µM
[14]
  Potency: inconclusive [cytotoxic, partial curve]
[15]
  Potency: active: 12.6 µM
[16]
  Potency: active: 12.6 µM
[17]
  Potency: active: 12.6 µM
[18]
  Potency: active: 10 µM
[19]
  Potency: active: 6.31 µM
[20]
  Potency: active: 6.31 µM
[21]
  Potency: active: 6.31 µM
[22]
  Potency: active: 3.98 µM
